Test results as given in PubChem BioAssay AID902 (National Center for Advancing Translational Sciences (NCATS), 2007).
In all, about 130,000 compounds went through this assay and about 1,900 (1.5%) were called active. The inconclusive results got no clear call from the source; some entries with a clear call stand among them for comparison. Calls come from the whole dose curve; as a rule, active = well fitted cell-killing curve with a large enough effect; inconclusive = small, poorly fitted or top-dose-only effect; inactive = no such curve, though single readings can be large or run the other way. Potencies of inconclusive entries are doubtful fits and often do not repeat.

assay: qHTS Screen for Compounds that Selectively Target Cancer Cells with p53 Mutations: Cytotoxicity of p53ts Cells at the Nonpermissive Temperature; settings: H1299-p53A138V viability at 39C, ATP luminescence, 24 h; activity change, negative = cell killing: at 46.1 µM (top of the series); note: nearly all actives have a fitted effect of over 55% in size
% is set by controls: 0 for no effect and ±100 for the full control effect; potency is the fitted concentration of half-maximal effect; tags give direction and shape of the fitted curve.

SMILES	Potency	activity change, negative = cell killing
O=C(CCN1C(=O)c2ccccc2C1=O)Nc1ccc(-c2cn3ccsc3n2)cc1	inconclusive: 5.01 µM [cytotoxic, full curve, poor fit]	–
COc1ccc(C(=O)c2cn(Cc3ccc(C)cc3)c3cc4c(cc3c2=O)OCO4)cc1	inconclusive: 31.6 µM [cytotoxic, single point]	–
COc1ccc2nc(N3CCCC(O)C3)c(C#N)cc2c1 (centres undefined)	inconclusive: 12.6 µM [cytotoxic, single point]	–
CCOC(=O)Cc1csc(-n2sc3ccccc3c2=O)n1	inconclusive: 20 µM [cytotoxic, single point]	–
COc1ccc2nc(N3CCN(C(=O)c4ccco4)CC3)sc2c1	inconclusive: 0.005 µM [cytotoxic, full curve, poor fit]	–
CC(C)CC(=O)Nc1ccc(-c2cn3ccsc3n2)cc1	active: 1 µM	–
CSc1cccc(NC(=O)Cn2nnc(C(=O)NCCc3ccccc3)c2N)c1	inactive	–
CCCN(CCC)S(=O)(=O)c1ccc(C(=O)Nc2nnc(-c3cccc(OC)c3)o2)cc1	inconclusive: 0.316 µM [cytotoxic, full curve, poor fit]	–
Cc1nc2ccccc2n1CCc1nc2c3ccccc3nc(SCC(=O)Nc3ccc(C(C)C)cc3)n2n1	active: 10 µM	–
Cc1ccc(NC(=O)CSc2[nH]c(=O)ncc2C)cc1	active: 10 µM	–
Clc1ccc(CSc2nc3ncccc3[nH]2)cc1	active: 10 µM	–
Cc1ccc2nc(NC(=O)c3cccs3)sc2c1	active: 7.94 µM	–
O=c1cc(-c2ccc(O)cc2)oc2ccc(O)cc12	inconclusive: 10 µM [cytotoxic, partial curve]	–
COc1cc(-c2nc3ccc(C)cn3c2Nc2ccc(Cl)cc2)ccc1O	active: 15.8 µM	–
O=C(NCCCN1CCCCC1)c1cc(Sc2ccc(Cl)cc2)nc2ccccc12	inconclusive: 31.6 µM [cytotoxic, partial curve, poor fit]	–
CC(C)Oc1ccc(CNC(=O)CCCn2c(=O)c3cccn3c3cccnc32)cc1	inconclusive: 10 µM [cytotoxic, partial curve, poor fit]	–
COCCN(CCOC)C(=O)c1cc2c(=O)n3ccccc3nc2n1C	inactive	–
COc1ccc(-c2cc(C(=O)NCCc3ccccc3)c3cc(C(C)C)ccc3n2)cc1	inconclusive: 0.005 µM [cytotoxic, full curve, poor fit]	–
O=S(=O)(c1ccc(Br)cc1)c1nnn2c1nc(NCc1cccs1)c1sccc12	inconclusive: 10 µM [cytotoxic, partial curve]	–
COc1ccc(-n2cc(C(=O)NCc3cccc(OC)c3)c3ccccc3c2=O)cc1	inconclusive: 0.0447 µM [cytotoxic, full curve, poor fit]	–
Cc1cc(C)c(C(=O)Nc2ccccc2)c(SCC(=O)Nc2ccc(Br)cc2C)n1	inconclusive: 0.1 µM [cytotoxic, full curve, poor fit]	–
CC1=C(C(=O)Nc2ccccc2C)C(c2ccccn2)n2nc(SCc3ccccc3F)nc2N1 (centres undefined)	active: 6.31 µM	–

SMILES	Potency	activity change, negative = cell killing
Cc1nc2nc(NC(=O)c3ccc(Cl)cc3)[nH]n2c(=O)c1Cc1ccccc1	inconclusive: 31.6 µM [cytotoxic, single point]	–
CC(C)(C)C(=O)N1CCN(c2nc3c(F)cccc3s2)CC1	inconclusive: 12.6 µM [cytotoxic, single point]	–
O=C(Cn1c(=O)n(Cc2ccc3c(c2)OCO3)c(=O)c2ccc(C(=O)NC3CCCCC3)cc21)Nc1ccccc1F	inactive	–
Cc1ccc(-n2c(SCC(=O)Nc3cccc(Cl)c3)nc3n[nH]c(C)c3c2=N)cc1	inconclusive: 20 µM [cytotoxic, single point]	–
Cc1ccc(Cl)cc1N1CCN(CCNC(=O)Nc2ccc(Cl)cc2)CC1	inconclusive: 20 µM [cytotoxic, single point]	–
CC(C)c1ccc(Nc2c(-c3ccccc3O)nc3cnccn23)cc1	active: 5.01 µM	–
COC(=O)Nc1nc2ccc(C(=O)c3cccs3)cc2[nH]1	inconclusive: 7.94 µM [cytotoxic, partial curve]	–
Cn1c(Oc2ccc(F)cc2)nc2c1c(=O)n(Cc1ccccc1Cl)c(=O)n2C	inconclusive: 20 µM [cytotoxic, single point]	–
CCc1ccc(OCC(=O)NCc2nc(-c3cccc(C)c3)no2)c(Br)c1	inconclusive: 31.6 µM [cytotoxic, single point]	–
COc1ccccc1CCNC(=O)Cn1ccc2cc(S(=O)(=O)N3CCCCCC3)ccc21	inconclusive: 0.282 µM [cytotoxic, single point]	–
Cc1cccc(N/C=C/C(=O)c2cccs2)c1C	active: 10 µM	–
Clc1cccc(-c2nnc(SCc3nc4ccccc4[nH]3)n2Cc2ccco2)c1	inactive	–
Cc1ccc(OCCCCn2c(CCNC(=O)C(C)(C)C)nc3ccccc32)cc1	inactive	–
Cc1ccc(SCc2nc(-c3ccccn3)no2)cc1	inactive	–
CCOC(=O)N/C(N)=N/c1nc2ccccc2s1	inconclusive: 12.6 µM [cytotoxic, partial curve]	–
O=C1c2oc3ccc(Cl)cc3c(=O)c2C(c2cccnc2)N1Cc1ccco1 (centres undefined)	inconclusive: 3.98 µM [cytotoxic, partial curve]	–
C=C1C(=O)C=C2CN(C(=O)c3ccccc3)[C@@](Cc3ccc(OC)cc3)(C(=O)OC)[C@@H]12	active: 20 µM	–
CCc1ccc(NC(=O)c2cc(C)on2)cc1	inconclusive: 12.6 µM [cytotoxic, partial curve]	–
CCOCCCN1C(=O)CN(C2CCCCCC2)C(=O)C1c1ccc(OC(C)C)c(OC)c1 (centres undefined)	inconclusive: 6.31 µM [cytotoxic, full curve, poor fit]	–
COc1ccc(NC(=O)c2cc3nc(-c4ccc(C)c(C)c4)cc(C(F)(F)F)n3n2)cc1	active: 10 µM	–
COc1ccccc1CNC(=O)c1oc2ccc(S(=O)(=O)N3CCCCC3)cc2c1C	–	inconclusive: -34.9% [cytotoxic]
O=C(Nc1ccc(NC(=O)C2CCCCC2)cn1)c1ccco1	active: 5.01 µM	–
